{"source": "ChEMBL document CHEMBL3875179", "key": {"[1]": {"system": "COc1cc2c(cc1OC)C(=O)/C(=C\\c1ccc(N3CCN(CCCN(C)C)CC3)cc1)C2", "test": "Mixed type inhibition of electric eel AChE using acetylthiocholine iodide as substrate assessed as enzyme Vmax at 9.790 uM preincubated for 15 mins followed by substrate addition and measured for 5 mins by Lineweaver-Burk plot analysis (reference value: […]/abs/min)", "settings": "Electrophorus electricus"}, "[2]": {"system": "COc1cc2c(cc1OC)C(=O)/C(=C\\c1ccc(N3CCN(CCCN(C)C)CC3)cc1)C2", "test": "Mixed type inhibition of electric eel AChE using acetylthiocholine iodide as substrate assessed as Km for substrate at 9.790 uM preincubated for 15 mins followed by substrate addition and measured for 5 mins by Lineweaver-Burk plot analysis (reference value: […] uM)", "settings": "Electrophorus electricus"}}}
{"substance": "Acetylcholinesterase (Electrophorus electricus) (no sequence given)", "values": [{"measurement": "Vmax", "setting": "[1]", "result": "0.16 /abs/min"}, {"measurement": "Km", "setting": "[2]", "result": 3.07, "unit": "µM"}]}
